Source: paper PMC4336329 (PLoS ONE, 2015)
Hit rate of the full screen: of about 310,000 compounds, about 2,200 (0.71%) showed an effect of 50% or more. Effects have a minus sign here. Some of the results follow.

biological target: human ether-à-go-go-related gene (hERG) potassium channel (human, UniProt Q12809); test: primary screen, population patch clamp on CHO cells stably expressing hERG
Sequence (Q12809 whole entry, looked up): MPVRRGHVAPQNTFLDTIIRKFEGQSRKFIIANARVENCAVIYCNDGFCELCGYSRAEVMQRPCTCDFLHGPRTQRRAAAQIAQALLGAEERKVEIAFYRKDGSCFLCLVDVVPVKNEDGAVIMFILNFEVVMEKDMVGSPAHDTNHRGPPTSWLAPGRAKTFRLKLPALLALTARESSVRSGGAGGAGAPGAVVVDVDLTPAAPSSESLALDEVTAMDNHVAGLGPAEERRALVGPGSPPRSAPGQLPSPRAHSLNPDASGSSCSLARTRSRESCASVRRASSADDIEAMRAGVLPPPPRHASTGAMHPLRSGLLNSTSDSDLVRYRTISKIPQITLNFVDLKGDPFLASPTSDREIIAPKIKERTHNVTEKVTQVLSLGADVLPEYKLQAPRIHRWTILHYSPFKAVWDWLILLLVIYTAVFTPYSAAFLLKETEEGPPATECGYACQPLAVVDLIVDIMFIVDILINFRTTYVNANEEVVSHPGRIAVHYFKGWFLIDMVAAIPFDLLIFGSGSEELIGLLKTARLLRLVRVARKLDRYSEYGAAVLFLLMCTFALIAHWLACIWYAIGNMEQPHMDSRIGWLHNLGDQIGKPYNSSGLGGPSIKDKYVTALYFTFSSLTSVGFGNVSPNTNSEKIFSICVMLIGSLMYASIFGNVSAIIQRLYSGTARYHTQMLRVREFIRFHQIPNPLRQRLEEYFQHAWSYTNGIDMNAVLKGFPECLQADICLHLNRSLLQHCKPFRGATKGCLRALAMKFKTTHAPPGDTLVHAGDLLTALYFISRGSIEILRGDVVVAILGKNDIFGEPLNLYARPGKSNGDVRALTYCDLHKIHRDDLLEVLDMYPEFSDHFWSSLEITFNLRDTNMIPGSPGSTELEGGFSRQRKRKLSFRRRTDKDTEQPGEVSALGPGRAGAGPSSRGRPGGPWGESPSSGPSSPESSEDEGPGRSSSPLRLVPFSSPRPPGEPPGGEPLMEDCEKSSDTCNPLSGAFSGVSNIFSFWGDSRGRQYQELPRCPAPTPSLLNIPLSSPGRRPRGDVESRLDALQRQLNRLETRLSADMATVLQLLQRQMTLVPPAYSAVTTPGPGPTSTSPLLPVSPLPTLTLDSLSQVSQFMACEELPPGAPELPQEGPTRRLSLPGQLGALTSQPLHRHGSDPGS

SMILES | hERG current change (%, negative = inhibition) at 1uM [%]
COc1ccccc1CCNC(=O)CSc1nc(-c2ccco2)cc(C(F)(F)F)n1 | 13.5
CN(C)CC(C)(C)CNC(=O)c1cc(=O)c2ccccc2o1.Cl | 14.1
COc1cccc(C2=NOC(C(=O)Nc3cc(OC)c(OC)c(OC)c3)C2)c1 (stereo not drawn) | 10.1
N#CCCn1nc(-c2ccc([N+](=O)[O-])cc2)cc1Nc1ccccc1NC(=O)C(F)(F)F | 10.6
S=C1NC[C@H](c2ccccc2)N1CC1CCCCC1 | -1.22
COc1ccc(/C=N/NC(=O)CN2CCSCC2)cc1C | 8.12
C=CCn1c(SCC(=O)N2CCc3ccccc3C2)nc2ccccc2c1=O | -3.47
C=CCNC(=O)CN(c1cc(Cl)ccc1OC)S(=O)(=O)c1ccc(C)c([N+](=O)[O-])c1 | 7.84
CCCNS(=O)(=O)c1cc(Br)cc2c1N(C(=O)CC)CC2 | 4.42
COc1cccc(-c2sc3ccc(OC)cc3c2-c2ccc(O)cc2)c1 | 16.6
COc1ccc(C(=O)NNC(=O)C2(C)CC2(Br)Br)cc1 (stereo not drawn) | 19
Cc1n[nH]c(C)c1S(=O)(=O)N1CCC(C(=O)O)CC1.Cl | 12.6
COc1cccc(-c2nc(CS(=O)(=O)CC(=O)Nc3ccccc3C)c(C)o2)c1 | 10.5
COc1ccc(/C=N/NC(=O)c2cccc([N+](=O)[O-])c2)cc1OS(=O)(=O)c1ccccc1 | 11.7
O=[N+]([O-])c1ccccc1-c1cc(-c2ccccc2)cc(-c2ccccc2)[n+]1Cc1ccccc1Cl.[O-][Cl+3]([O-])([O-])[O-] | -16.1
O=C1c2cccnc2C(Nc2ccccc2)N1Cc1ccco1 (stereo not drawn) | 1.08
COc1ccc(S(=O)(=O)N2CCOC2CNC(=O)C(=O)NCc2ccco2)cc1OC (stereo not drawn) | 0.774
Oc1ccc(/C=N/Nc2ncnc3nc[nH]c23)cc1 | 13.6
CCc1ccc(CNC(=O)CCS(=O)(=O)Cc2ccc(C)cc2)cc1 | 3.38
Cc1ccc(-c2nnn(CC(=O)N3CCCCC3)n2)c(-n2cnnn2)c1 | 3.23
CNCC(C)c1ccccc1.Cl (stereo not drawn) | 11.2
CCCc1cc(=O)[nH]c(SCC(=O)c2[nH]c(C)c(C(=O)OCC)c2C)n1 | -3.89

SMILES | hERG current change (%, negative = inhibition) at 1uM [%]
Cn1cnc2c1c(=O)n(Cc1ccccc1C#N)c(=O)n2C | 15.8
C=CCN(CC=C)C(=O)Cc1ccc(F)cc1 | 13.6
COc1ccccc1N1C(=O)C2ON(c3ccccc3)C(c3ccc(N(C)C)cc3)C2C1=O (stereo not drawn) | 9.18
COCC(=O)N(CCc1ccc(OC)c(OC)c1)Cc1nc2ccccc2c(=O)[nH]1 | 4.96
Cc1ccc(-c2nn(-c3ccccc3)cc2C(=O)NC2CCC(O)CC2)cc1 (stereo not drawn) | 3.57
S=C(NCc1ccco1)Nc1ccccn1 | -0.557
Cc1ccc(OCc2cc(C(=O)N3CCC(C(O)C(C)C)CC3)no2)cc1C (stereo not drawn) | 5.09
N/C(Cc1ccc([N+](=O)[O-])cc1)=N\OC(=O)c1ccccc1F | 3.98
N#Cc1ccsc1NC(=O)CN1CCOCC1 | 7.61
Cc1ccc(C)c(NS(=O)(=O)c2ccc(OCC(=O)NCc3ccco3)cc2)c1 | 3.94
CN1C(=O)COc2ccc(C(=O)c3ccccc3C(=O)O)cc21 | 10.5
O=C(c1ccco1)N1CCN(C(=O)C2CCCN(S(=O)(=O)Cc3ccccc3)C2)CC1 (stereo not drawn) | -1.46
Cc1ccc(NC(=O)c2sc(N)nc2C)cc1 | 10.9
CCn1c(=N)c(S(=O)(=O)c2ccc(Cl)cc2)cc2c(=O)n3ccccc3nc21 | 1.43
O=C(CN1CC[n+]2c(-c3cccs3)csc21)c1ccc(Br)cc1.[Br-] | 12.8
COc1ccc(NS(=O)(=O)c2ccc3oc(=O)c4[nH]c(=O)c(=O)n(C)c4c3c2)cc1 | 13
O=C(COC(=O)CNC(=O)c1sc2ccccc2c1Cl)Nc1cc(Cl)cc(Cl)c1 | 1.45
COc1ccc(NC(=O)C(CCSC)N2C(=O)c3ccccc3C2=O)cc1 (stereo not drawn) | 5.12
Cc1ccc(C2(C)NC(=O)N(CC(=O)N3CCN(C(=O)c4cccs4)CC3)C2=O)cc1 (stereo not drawn) | 10.5
CCOC(=O)c1cc2c(C(F)(F)F)cc(-c3ccccc3)nc2o1 | 11.4
O=C(NCc1ccccc1)c1ccc(-c2ccc(F)cc2)o1 | -1.45
Cc1ccc(S(=O)(=O)N/N=C/c2c[nH]c3ccccc23)cc1 | 4.47

SMILES | hERG current change (%, negative = inhibition) at 1uM [%]
CC(=O)OC(C(=O)N1CCN(c2ccccc2F)CC1)c1ccccc1 (stereo not drawn) | -4.55
O=C(Nc1cc([N+](=O)[O-])ccc1O)c1cccc([N+](=O)[O-])c1 | 15.3
CS(=O)(=O)N(CC(=O)Nc1ccccc1C(=O)N1CCCC1)c1ccccc1Br | 5.81
c1ccc2oc(CCc3nc4ccccc4o3)nc2c1 | 5.89
O=C(CCCn1c(=O)c2ccccc2n(CC(=O)N2CCN(c3ccccc3)CC2)c1=O)NCc1ccco1 | 9.61
Cc1oc(-c2ccccc2F)nc1CS(=O)(=O)CC(=O)NCCN(C)C1CCCCC1 | 0.43
CCn1cc(Cl)c(C(=O)NNC(=O)CCn2cc([N+](=O)[O-])cn2)n1 | 14.8
Cc1cc(C)n(CC2CC(=O)N(c3ccccc3)C2=O)n1 (stereo not drawn) | 11.8
COc1cc(NC(=S)NCCc2ccc(S(N)(=O)=O)cc2)c(OC)cc1Cl | 14.6
Cc1cc(=O)c(C(=O)O)nn1-c1ccc(Cl)cc1 | 12.9
CC(=O)Nc1nnc(SCC(=O)NCc2ccc3c(c2)OCO3)s1 | 12.8
Cc1cc(C#Cc2c(-c3ccccc3)n(C)c3ccccc23)ccc1F | 1.94
CC1CCC2(CC1)NC(=S)N(C(C)(C)C)N2 (stereo not drawn) | 18
CC(=O)Nc1ccc(NC(=O)CCOc2ccccc2C)cc1 | 17.5
COc1ccc(S(=O)(=O)N2CCC3(CC2)OCCN3S(=O)(=O)c2ccccc2)cc1OC | 10.2
CCN1CCN(c2ccc(S(=O)(=O)N3CCCCC3)cc2NC(=O)c2cc3ccccc3o2)CC1 | 0.811
CC(=O)c1cn(CC(=O)Nc2ccccc2Cl)c2ccccc12 | 11.5
Cc1c(Cl)cnc(NC(=O)COC(=O)c2ccc(S(=O)(=O)NCc3ccco3)cc2)c1Cl | 3.98
Cc1cc(C(=O)COC(=O)c2ccc(Br)o2)c(C)n1Cc1ccco1 | 10.5
CCN(CC)S(=O)(=O)c1ccc(O)c(NC(=O)CN2CCc3ccccc3C2)c1 | 15.7
Cn1c(=O)n(CC(=O)OCc2ccccc2)c(=O)c2c1nc1n2CCCN1C1CCCCC1 | 7.78
COc1ccc(N2CCN(C(=O)c3cc4c(s3)-c3ccccc3OC4)CC2)cc1 | 15.6

SMILES | hERG current change (%, negative = inhibition) at 1uM [%]
CCOC(=O)C(O)(c1ccc(NC(=O)c2ccco2)c(OC)c1)C(F)(F)F (stereo not drawn) | 2.46
CCOC(=O)CN1C(=O)C(O)=C(C(C)=O)C1c1ccc([N+](=O)[O-])cc1 (stereo not drawn) | -6
CN(C)CCNC(=O)c1cccc(NS(=O)(=O)c2ccc(Cl)c(Cl)c2)c1 | 6.25
C[n+]1ccc(/C=C/c2c[nH]c3ccccc23)cc1.[I-] | 5.04
COc1ccc(S(N)(=O)=O)cc1C(=O)NCCCN1CCN(c2ccc(C)cc2)CC1 | -11.9
COc1ccc(CCNC(=O)C(NS(=O)(=O)c2ccc3c(c2)CCN3C(C)=O)C(C)C)cc1OC (stereo not drawn) | -3.84
Cc1ccc(-c2nc(CSc3nc4ccccc4c(=O)n3C)cs2)cc1 | 10.3
COc1ccc(O/C(=N\S(=O)(=O)c2ccccc2)c2ccccc2)cc1 | 7.56
CCOC(=O)N1CCN(C(=O)COC(=O)c2ccc(O)cc2O)CC1 | 16.8
CCc1nnc(NC(=O)CSc2nnc(-c3ccoc3C)n2-c2ccccc2)s1 | 14.5
CCNC(=O)Nn1c(C)nnc1C | 8.29
CC(C)(C)NC(=O)COc1ccc(S(=O)(=O)N2CCCC2)cc1 | 10.2
CCn1cc(-c2nnnn2-c2ccc(Cl)cc2)c(=O)c2ccccc21 | -16.3
CN(C)Cc1c[nH]c2ccccc12 | 12.8
Cn1cnc([N+](=O)[O-])c1SCC(O)CN1CCCCC1 (stereo not drawn) | -3.77
CC1(C)C(=O)Nc2ccccc2N1C(=O)COC(=O)COc1ccc(C#N)cc1 | 2.87
Cc1ccc2nc(NC(=O)Cc3cccs3)sc2c1 | 3.4
CCCCCC(=O)Nc1ccc(S(=O)(=O)Nc2nccc(C)n2)cc1 | 12
CCOc1ccc2c(c1)C(C)=CC(C)(C)N2 | 14.7
COc1ccc(CN2CCC(C(=O)c3cccc(Cl)c3)CC2)cc1 | -66.8
Cc1ccc(C(=O)COC(=O)CCc2nc3ccccc3[nH]c2=O)cc1C | 18.5
